In article PMC12040169 (PLOS Biology, 2025):
The list shows a part of the results.

test system: T1, C. trachomatis L2/434/Bu expressing GFP (CTL2-GFP); design: species or system HeLa; C. trachomatis total inclusion area by high-content imaging, normalised to DMSO; conditions: total inclusion area; 28.5 h, 10 µM; inhibitor
T1 construct: L2/434/Bu GFP intracellular growth in HeLa cells
Summary of the method: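 Bulk GFP and resorufin signals were read first. Wells were then fixed, stained with Hoechst and imaged to detect GFP inclusions and host nuclei. MICs followed the previously described calculation.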

Compound	% of control remaining
O=C(Nc1ccc(OCc2nc3ccccc3s2)cc1)c1cccc(I)c1 [CBK267843]	80.6333
Cc1cc(NS(=O)(=O)c2ccc(F)cc2)n(C)n1 [CBK051021]	88.1362
CCCC/N=C(\NS(=O)(=O)c1ccc(C)cc1)OCC [CBK022731]	76.4043
COc1ccc(-c2sc(C(=O)O)c(C)c2C#N)cc1 [CBK019922]	63.2489
Cc1ccc(OC(C)C(=O)Nc2cc(C(C)(C)C)on2)cc1C (stereo not shown) [CBK288251]	85.9482
Cc1ccc(-c2nnc(CNC(=O)Cc3ccccc3Cl)o2)s1 [CBK284648]	99.3944
CN(C)CCN(Cc1ccccc1)C(=O)NCc1ccc(C#N)cc1 [CBK155097]	103.422
O=C(Cc1cc(C(=O)O)c2ccccc2n1)Nc1ccccc1 [CBK268227]	115.293
COC[C@@H]1CCCN1S(=O)(=O)c1ccc(Cl)c(Cl)c1 [CBK044313]	73.3444
O=C(C1CCCN(S(=O)(=O)c2ccc(F)cc2)C1)N(Cc1ccccc1)Cc1ccccc1 (stereo not shown) [CBK267652]	66.5954
O=C(Cn1cncn1)N[C@H]1C2CCCCC2[C@@H]1c1ccccc1 (stereo partly shown) [CBK283011]	103.616
CSCCCNC(=O)N1CCCC(C(=O)O)C1 (stereo not shown) [CBK161343]	41.5532
CC(C)Cn1c(CN2CCOCC2)nc2c1c(=O)n(C)c(=O)n2C [CBK305913]	80.4417
Cn1c(=O)c2c(ncn2CC(=O)Nc2ccc(C#N)cc2)n(C)c1=O [CBK133466]	85.1477
CCCc1oc(C(=O)O)cc1CN1CCCCC1 [CBK267973C]	86.1298
Cc1nc2nc(N)nn2c(C)c1CCC(=O)OCc1cccc(C#N)c1 [CBK306083]	49.5156
Cc1c(Cl)cccc1S(=O)(=O)Nc1nc(C(C)Sc2nccn2C)ns1 (stereo not shown) [CBK200052]	105.662
CCc1nc2cccnc2n1CCNC(=O)c1cccs1 [CBK283638]	77.7774
O=C(NC(c1ccc(Cl)cc1)c1cccnc1)C1CCN(C(=O)C2CC2)CC1 (stereo not shown) [CBK059686]	98.7401
Cc1nc2c(c(=O)[nH]1)CC[C@@H]1CN(C(=O)c3cc(F)cc(F)c3)C[C@H]21 [CBK284418]	90.3373
Cc1noc(-c2ccc3c(c2O)OCCO3)c1-c1ccc(Cl)cc1 [CBK018086]	0.157
CCc1nn(CC(=O)N2CCCCC2)c(=O)c2cc3occc3n12 [CBK283674]	78.8783
Cc1ccc(C(C)C)c(OCCSc2nc3c(N)ncnc3[nH]2)c1 [CBK266941]	109.606
CCOC(=O)Cc1csc(NS(=O)(=O)c2cc(Cl)c(Cl)s2)n1 [CBK000847]	105.395
O=C(c1ccc(F)cc1)c1cn(CCO)c2c(Cl)nccc12 [CBK285129]	104.054
CCOC(=O)C1CCN(Cc2c(O)c3ccccc3oc2=O)CC1 [CBK266035]	137.975

Compound	% of control remaining
Cc1sc2c(c1C)c(=O)nc1scc(CC(=O)NCCO)n12 [CBK266726]	100.25
COc1nccnc1-c1cnn(C)c1 [CBK107069]	95.5304
Cc1nc(CCNCc2c(C)nn(C)c2N2CCOCC2)cs1 [CBK304054]	48.8551
COc1cccc(-c2nc(SCC(=O)Nc3ccc([N+](=O)[O-])cc3)[nH]c(=O)c2C#N)c1 [CBK264912]	127.029
CCOc1ccc(C(=O)NC(=S)Nc2ncccc2C)cc1[N+](=O)[O-] [CBK264128]	101.804
Cc1ccc(C(=O)C2=C(O)C(=O)N(CCCN3CCOCC3)C2c2ccccn2)o1 (stereo not shown) [CBK269187]	102.752
CC(=O)Oc1cccc(C(=O)O)c1C [CBK038235]	33.0725
CC(C)C(=O)N1CCCC(n2c(=O)oc3ccc(Cl)cc32)C1 (stereo not shown) [CBK282890]	100.288
Cc1ccc(NC(=O)CSc2cc(-n3nc(C)cc3C)ncn2)cc1 [CBK287820]	78.2348
O=C(O)Cc1ccc(OCC(=O)NCCCSc2ccccc2)cc1 [CBK296630]	100.627
O=C(O)/C=C/c1cn([C@H]2C[C@@H](O)[C@@H](CO)O2)c(=O)[nH]c1=O [CBK201174]	120.292
Nc1c(Cc2c(Cl)cccc2Cl)c(=O)n2n1CCCC2 [CBK089337]	98.4228
Cc1cc(OCC(=O)N2CCCc3c(cnn3C)C2)ccc1Cl [CBK285277]	102.009
COc1ccc(C(=O)NCC2(c3ccc(OC)c(OC)c3)CCCCC2)c(OC)c1 [CBK067049]	91.4092
Cn1c(=O)c2c(ncn2CCCn2cnc3c2c(=O)n(C)c(=O)n3C)n(C)c1=O [CBK268933]	118.401
Cc1cn2c3c(=O)n(CCN4CCCCC4)c(=O)n(C)c3nc2n1CC1CCCO1 (stereo not shown) [CBK269820]	98.0211
O=C(NCc1cccnc1)c1cc2c(ccc3ccccc32)oc1=O [CBK270195]	96.8342
COc1ccc(C(CC(=O)O)C(=O)O)cc1OC (stereo not shown) [CBK261943]	86.5612
O=C(CC1C(=O)Nc2ncnn21)Nc1ccccc1 (stereo not shown) [CBK288071]	95.6754
CCCOC1CCCN(C(=O)c2cc(Cl)c[nH]2)C1 (stereo not shown) [CBK304802]	87.7473
CC(NC(=O)C1(Cn2ccnc2)CC1)c1nncn1C(C)C (stereo not shown) [CBK306682]	84.4354
COc1ccc(S(=O)(=O)Nc2ccc(S(=O)(=O)Nc3nccs3)cc2)c([N+](=O)[O-])c1 [CBK266801]	4.26
COc1ccc(Cn2nc(NC(C)=O)c3ccccc32)cc1 [CBK048200]	100.751
CCOc1cc(NC2CCN(C(=O)C3CCCC3)C2)ncn1 (stereo not shown) [CBK304137]	45.6736
COc1ccc(CC(=O)N2CCCCC2c2cc(-c3ccc(F)cc3)cc(C)n2)cc1OC (stereo not shown) [CBK285858]	90.6413
c1ccc(Oc2ccccc2-c2ccc(Nc3ccc(N4CCOCC4)cc3)nc2)cc1 [CBK036913]	127.748
